# Assay results as given in PubChem BioAssay AID686971 (National Center for Advancing Translational Sciences (NCATS), 2013).
# Out of some 360,000 compounds screened, about 7,500 (2.1%) were called active. The shares of active, inactive and inconclusive entries below differ from those in the screen. Calls follow the shape of the dose curve; as a rule, active = well fitted cell-killing curve with a large enough effect; inconclusive = small, poorly fitted or top-dose-only effect, or effect the other way, or another doubt; inactive = no such curve, though single readings can be large or run the other way. No potency is given beside an inconclusive call; the fits are too rough.
# Assay: qHTS for induction of synthetic lethality in tumor cells producing 2HG: qHTS for the HT-1080-IDH1KD cell line;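 as to activity, negative = toxicity: 0% = DMSO wells and -100% = cell-free medium wells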
# Settings: HT-1080 IDH1 knockdown viability, ATP luminescence, 48 h; activity, negative = toxicity: at 46.1 µM (top of the series) unless noted
# Summary of the method: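 CellTiter-Glo luminescence after 48 h compound exposure at 37 degrees C of IDH1-knockdown HT-1080 cells in 5% FBS RPMI. %Activity scaled between DMSO wells and cell-free media wells, with curves fitted and assigned curve classes.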
# Potency is read from the fitted curve at half-maximal effect; tags tell the direction and shape of the fitted curve.
Structure (SMILES),"activity, negative = toxicity",Potency
COc1ccc(/C=N/NC(=O)c2ccc(NC(=O)c3cccc([N+](=O)[O-])c3)cc2)c(OC)c1,inactive: -10.9%,–
CCCc1nc2ccc(C(=O)OC)cn2c1Cc1ccccc1,inactive: -22.6%,–
CC(Oc1nc2c(c(=O)n(C)c(=O)n2C)n1C)C1CCCCC1 (stereo not given),inactive: 16.6%,–
O=C1c2ccccc2C(=O)N1c1n[nH]c(CCc2ccccc2)n1,–,"inconclusive [cytotoxic, single point]"
COc1ccc(/C=N/Nc2ncnc3scc(-c4ccccc4)c23)cc1OC,–,"inconclusive [cytotoxic, single point]"
O=C(NNc1ccc(Cl)cc1)c1sccc1Cl,–,active: 8.2 µM
OC(c1ccccc1)(c1ccccc1)C1CCN(CCCOc2ccc3c(c2)CCCC3)CC1,–,active: 13 µM
COc1ccc(NC(=O)c2c(-c3c(Cl)cccc3Cl)noc2C)c(OC)c1,inactive: -14%,–
CCCCOc1ccc2c(c1)C(=O)c1cc(O)ccc1-2,–,"inconclusive [cytotoxic, single point]"
CCOC(=O)C(=NC1CCS(=O)(=O)C1)NNc1ccc(Br)cc1 (stereo not given),–,"inconclusive [cytotoxic, partial curve]"
CC(=O)c1c(N2CCN(C)CC2)[nH]c(-c2ccccc2)nc1=S,–,"inconclusive [cytotoxic, single point]"
CCN(CC)C(=O)Cn1cc(SCC(=O)NC)c2ccccc21,inconclusive: 34.4%,–
Clc1ccc(-n2nnnc2Sc2ncnc3sccc23)cc1,–,"inconclusive [cytotoxic, partial curve]"
CC(C)C(=O)NNC(=O)c1cc2sccc2s1,inactive: 2.35%,–
Cc1cccc(Nc2c([N+](=O)[O-])cc(C(=O)N3CC(=O)Nc4ccccc43)cc2[N+](=O)[O-])c1,inactive: -17.3%,–
Cn1c(=N)n(CC(=O)c2ccc(Cl)c(Cl)c2)c2ccccc21,inactive: -6.62%,–
Cc1nc2c(cc1C(=O)N/N=C/c1ccc(O)c(O)c1)c(=O)n(C)c(=O)n2C,–,"inconclusive [cytotoxic, single point]"
C=CC[C@H](CC(=O)NCCO)C(=O)N[C@H](COC(=O)[C@@H](CC=C)Cc1ccc(F)cc1)c1ccccc1,inactive: -3.99%,–
COc1cc(C(=O)N2CCCC(c3cc(C(=O)NCc4ccc(F)cc4)no3)C2)cc(OC)c1C (stereo not given),–,"inconclusive [cytotoxic, single point]"
COC(=O)[C@]12CCCCC=C1N(Cc1cccc3ccccc13)C(=O)[C@H](CC(=O)N1CCN(C(=O)C3CC3)CC1)C2,inactive: -11.6%,–
CCc1ccc2[nH]c(=O)c(CN(CCN(C)C)C(=O)Nc3ccccc3OC)cc2c1,–,"inconclusive [cytotoxic, single point]"
CN1CCN(C(=O)c2cc3c(c(-c4cccc(-c5cc6ccccc6o5)c4)n2)[C@H](CCO)N(S(=O)C(C)(C)C)C3)CC1 (stereo not given in full),inactive: -18.8%,–
COC(=O)CNC(=O)CNC(=O)c1nn(-c2ccc(OC)c(Cl)c2)c(=O)c2ccccc12,inactive: 2.47%,–

Structure (SMILES),"activity, negative = toxicity",Potency
CC(C#Cc1ccc2c(c1)COc1c3ccccc3nn1-2)OC(C)(C)C (stereo not given),inactive: 13.4%,–
Cc1cc(C)c(C)c(S(=O)(=O)N2CCC(C(=O)NNC(=O)c3ccccc3O)CC2)c1C,–,"inconclusive [cytotoxic, partial curve]"
Cc1ccc2cc(C#N)c(NCc3ccco3)nc2c1,–,"inconclusive [cytotoxic, single point]"
N#Cc1cccc(OCCCN2CCC(C(O)(c3ccccc3)c3ccccc3)CC2)c1,–,"inconclusive [cytotoxic, single point]"
CSc1nc2ccccc2cc1/C=C(\C#N)c1cccc(Cl)c1,–,active: 4.61 µM
C=C(C)CNC(=S)N/N=C/c1c(F)cccc1F,inactive: -13.3%,–
CSc1ccc(C(=O)C2CCCN(C(=O)CCc3c(C)nn(C)c3C)C2)cc1 (stereo not given),–,"inconclusive [cytotoxic, partial curve]"
CN(C(=O)c1ccc(NC(=O)Cc2ccc(NC(=O)C3CCCN(C(=O)C4CCC4)C3)cc2)cc1)C1CCCC1 (stereo not given),inactive: 3.83%,–
N#Cc1cnn(-c2ccc([N+](=O)[O-])cc2[N+](=O)[O-])c1N,inactive: -28.6%,–
CC(C)C[C@H](NC(=O)c1[nH]cnc1C(=O)N[C@@H](C)c1ccccc1)C(=O)OCc1ccccc1,–,"inconclusive [cytotoxic, single point]"
CCOC(=O)c1sc(Nc2nc3ccc(OC)cc3s2)cc1C,–,"inconclusive [cytotoxic, single point]"
CCOC(=O)c1nnc(-c2cccs2)nc1Oc1ccc(Cl)cc1,inactive: 3.52%,–
C=CCc1cccc(/C=N/NC(=O)c2ccccc2Br)c1O,–,"inconclusive [cytotoxic, single point]"
COC(=O)c1sc(NC(=O)c2cc(-c3ccccc3)nc3ccccc23)c(C#N)c1C,–,"inconclusive [cytotoxic, partial curve, poor fit]"
COc1ccc(-c2n[nH]c(C)c2-c2ccccc2OC)c(O)c1,–,"inconclusive [cytotoxic, single point]"
O=C(Nc1nc2cc3c(cc2s1)OCCO3)c1ccco1,–,"inconclusive [cytotoxic, partial curve]"
O=C1CCn2c1c(O)c1ccccc1c2=O,inactive: -2.21%,–
O=C(NC(C(=O)N/N=C/c1cc([N+](=O)[O-])ccc1O)c1n[nH]c(=O)c2ccccc12)c1ccccc1 (stereo not given),–,"inconclusive [cytotoxic, full curve, poor fit]"
COc1ccc(-n2nnnc2S(=O)(=O)CC(=O)N2CCCCC2)cc1,–,active: 20.6 µM
COC(=O)c1ccc(NC(=O)Nc2ccc3c(c2)OCO3)cc1,–,"inconclusive [cytotoxic, partial curve]"
CN(C)[C@@H]1C(=O)C(C(N)=O)=C(O)[C@@]2(O)C(=O)C3=C(O)c4c(O)ccc(Cl)c4[C@@H](O)[C@H]3C[C@@H]12,–,"inconclusive [cytotoxic, single point]"
O=C(NCc1ccccc1)C(c1cc2ccccc2o1)n1c(=O)c(-c2cc3ccccc3[nH]2)nc2ccccc21 (stereo not given),–,"inconclusive [cytotoxic, single point]"
